Assay results: PubChem BioAssay AID504444 (National Center for Advancing Translational Sciences (NCATS), 2011)
About 7,500 (2.1%) of roughly 360,000 compounds were called active. Inconclusive results (about 20%) are left out. Calls follow the shape of the dose curve; as a rule, active = well fitted inhibition curve with a large enough effect; inconclusive = small, poorly fitted or top-dose-only effect, or effect the other way; inactive = flat fitted curve, though single readings scatter. The list shows a part of the results, in another mix than the full data.

test: Nrf2 qHTS screen for inhibitors; settings: A549 ARE-Fluc reporter, luciferase luminescence, 18-24 h; series mostly up to 46 µM; activity change, negative = inhibition: at the top concentration; also: nearly all actives have a fitted effect of over 60% in size
Outline: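 Two sequential reads on A549 ARE_Fluc cells exposed to compound for 18-24 h: a CellTiter-Fluor fluorescence read for viability, then a luciferase luminescence read for Nrf2/ARE activity.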
% is scaled to controls: 0 for no effect and ±100 for the full control effect; potency is read from the fitted curve at half-maximal effect.

Structure (SMILES) | Potency | activity change, negative = inhibition
Cc1ccc(-c2c(C)n3c4c(=O)n(C)c(=O)n(C)c4nc3n2CCCO)cc1 | active: 18.4 µM | 
Oc1ccc(C[C@@H]2CNCCN2CC2(c3ccccc3)CC2)cc1 |  | inactive: 1.39%
O=C1C2C(c3ccccc3)CC=CC2[C@H](c2ccc3ccccc3c2)N1Cc1ccccc1 (stereo not given in full) |  | inactive: -10.2%
Clc1ccccc1CN1CCN(/N=C/C=C/c2ccco2)CC1 |  | inactive: 13.1%
O=C(COc1ccccc1)Nc1c(Cl)ccc2nsnc12 |  | inactive: -4.77%
Cc1ccc(/C=C2\C(=O)ON=C2c2ccccc2)o1 |  | inactive: -4.34%
CC(=O)n1cc([C@H]2C=C(C(=O)N3CCN(Cc4ccccc4)CC3)O[C@@H](OCc3ccc(CO)cc3)C2)c2ccccc21 |  | inactive: -23.3%
CC(=O)Nc1ccc(SCC(CC(C)C)N2CCN(CCc3ccccc3)CCC2=O)cc1 (stereo not given) |  | inactive: -10.7%
COc1cccc(-c2cc(C(=O)N3CCN(c4ccccc4OC)CC3)no2)c1 |  | inactive: 14.3%
CCC(CC)C(=O)Nc1c(C(=O)N2CCN(c3ccccc3)CC2)oc2ccccc12 |  | inactive: 1.55%
CCOC(=O)/C(=N\Nc1ccc(Br)cc1)N1CC(C)OC(C)C1 (stereo not given) |  | inactive: -11.7%
C[C@H]1CCC[C@@]2(O[C@@H](CCO)C[C@H](O)[C@H]2O)O1 |  | inactive: 7.89%
O=C(Cn1cccc1C(=O)c1ccccc1)NCc1ccc(F)cc1 |  | inactive: 12.2%
Cc1occc1C(=O)N(C)Cc1nc(-c2ccc(Cl)cc2)no1 | active: 20.6 µM | 
Cc1ccc(NC(=O)c2ccc(CNS(=O)(=O)c3ccc4c(c3)C(C)(C)C(=O)N4C)cc2)cc1C | active: 18.4 µM | 
O=C(Nc1c(-c2ccccc2)nc2ccccn12)c1ccccc1F |  | inactive: 2.83%
CCOC(=O)C1=C(C)NC(C)=C(C(=O)OCC)C1C(=O)OCC(=O)N1CCCCC1CC (stereo not given) |  | inactive: -1.98%
CCOc1ccc(CCNC(=O)CCCn2c(=O)c3cccn3c3cccnc32)cc1OCC |  | inactive: -0.986%
C#C[C@]1(O)CC[C@H]2[C@@H]3CCC4=CC(=O)CC[C@@H]4[C@H]3CC[C@@]21CC |  | inactive: -10.9%
N#C/C(=C(/O)c1ccco1)c1nc2ccccc2s1 |  | inactive: 1.4%

Structure (SMILES) | Potency | activity change, negative = inhibition
CCCCNC(=O)C(Cc1ccccc1)NS(=O)(=O)c1ccc2c(c1)c(=O)n(C)c(=O)n2C (stereo not given) |  | inactive: 6.94%
CNC(=O)C1CCC(Cn2c(=O)c3sccc3n(CC(=O)Nc3ccc(C)c(C)c3)c2=O)CC1 (stereo not given) | active: 23.1 µM | 
C[C@@H]1CC=C[C@H]2[C@H]1C(=O)N(Cc1ccccc1)[C@H]2c1ccc(-c2ccc(F)cc2)cc1F |  | inactive: -13.1%
Cc1ncc(CO)c(/C=N/Nc2ccc(C(F)(F)F)cn2)c1O | active: 10.3 µM | 
NNC(=O)c1oc2nc(-c3ccc(Cl)cc3)cc(-c3ccccc3)c2c1N | active: 10.3 µM | 
CCCN(CCC)CCCNC(=O)c1cc2c(-c3ccc(OC)c(OC)c3)nn(C)c2s1 |  | inactive: 16.1%
CC(C)Nc1nc(C#N)nc(NC(C)C)n1 |  | inactive: -23.8%
CC(N=C(NC#N)Nc1ccncc1)C(C)(C)C (stereo not given) |  | inactive: -3.31%
COc1ccc(NC(=O)CCCN2C(=O)C(c3ccccc3)Oc3cccnc32)c(OC)c1 (stereo not given) |  | inactive: -15.2%
O=C(Cc1cccs1)N/N=C/C=C/c1ccccc1[N+](=O)[O-] |  | inactive: 2.41%
CN1C(=O)Cc2cc(S(=O)(=O)NCCc3ccc(Cl)cc3)ccc21 |  | inactive: 1.76%
Cc1ccc(N2CCN(S(=O)(=O)c3ccc(-n4cnnn4)cc3)CC2)c(C)c1 |  | inactive: -2.97%
O=C(C1=C[C@@H](c2ccc(C(F)(F)F)cc2)C[C@@H](OCc2ccc(CO)cc2)O1)N1CCN(Cc2ccccc2)CC1 |  | inactive: -26.6%
C/C(Cl)=C/Cn1c(N2CCCC2)nc2c1c(=O)n(C)c(=O)n2C |  | inactive: -16.7%
CC1CCCN(CCCNC(=O)c2cc3c(Cl)nc4ccccc4c3s2)C1 (stereo not given) |  | inactive: 8.39%
CCc1ccc(CNC(=O)C2CCN(c3nnc(C)c4c(C)n(-c5ccc(C)cc5)nc34)CC2)cc1 |  | inactive: 40.3%
C[C@@H]1NC(=O)[C@@]2(C)[C@@H](c3ccccc3)[C@H]3COc4ccccc4[C@@H]3N2C1=O |  | inactive: 2.61%
O=C(COc1ccc([N+](=O)[O-])cc1)N1CCC(c2nc3ccccc3s2)CC1 | active: 14.6 µM | 
O=C(Nc1nnc(S(=O)(=O)N2CCCCCC2)s1)c1ccccc1F |  | inactive: 12.8%
Cn1nc(C(=O)N2CCN(c3ccc(Cl)cc3)CC2)c2c1-c1ccccc1S(=O)(=O)C2 |  | inactive: 10.9%

Structure (SMILES) | Potency | activity change, negative = inhibition
O=C(CCCN1C(=O)/C(=C/c2ccccc2Cl)SC1=S)NNC(=O)c1ccc(Cl)cc1 | active: 8.2 µM | 
COC(=O)N1C(=O)[C@](c2ccccc2)(C(C)C)N1C(=O)OC |  | inactive: -16.5%
CCn1cnc2c(Nc3cc(F)cc(F)c3)nc(C#N)nc21 |  | inactive: 5.56%
O=C(Cn1cc(C(=O)c2ccco2)c2ccccc21)Nc1ccccc1 |  | inactive: -22.8%
COc1cccc(-n2c(C)nc3cc(C(=O)O)ccc32)c1 |  | inactive: 3.59%
Cc1c(NC(=O)c2cc(-c3ccc(Br)cc3)on2)c(=O)n(-c2ccccc2)n1C |  | inactive: -10.5%
Cc1oc(-c2ccc(C(=O)Nc3cccc(C(F)(F)F)c3)cc2)nc1CSc1ccccc1 | active: 5.8 µM | 
N#Cc1nc(NCC(F)F)c2ncn(-c3cccc(Cl)c3)c2n1 | active: 20.6 µM | 
O=C(COc1ccccc1)N[C@@H]1c2ccccc2CC[C@@H]1OCc1ccccc1 |  | inactive: -13.3%
CN(CC(=O)NCc1ccc(Cl)cc1)S(=O)(=O)c1ccc2[nH]c3c(c2c1)CCCC3 | active: 16.4 µM | 
CCN(c1cccc(C)c1)S(=O)(=O)c1ccc(-n2cccn2)cc1 |  | inactive: -11.5%
Cc1c(C(=O)N2CCCCC2)c(S(=O)(=O)NCc2ccc(N(C)C)cc2)c(C)n1C |  | inactive: -8.83%
Cc1cc(=O)n(C(C)C(=O)N2CCCc3ccccc32)c2c1c(C)nn2-c1ccccc1 (stereo not given) | active: 18.4 µM | 
Cc1ccc2[nH]cc(S(=O)(=O)c3ccc(C)c(C)c3)c(=O)c2c1 |  | inactive: 3.16%
O=C(COc1ccc(Cl)cc1)N1CCN(Cc2ccc3c(c2)OCO3)CC1 | inactive | 
O=C(Nc1scc(-c2ccc(Br)cc2)c1C(=O)O)c1ccccc1F | active: 10.3 µM | 
CCOc1ccc(CNC(=O)CCC(=O)N2Cc3ccccc3Oc3ncccc32)cc1 |  | inactive: -3.87%
O=C(CSc1nc(-c2ccco2)cc(C(F)(F)F)n1)Nc1ccc(C(=O)N2CCCCC2)cc1 | active: 23.1 µM | 
Cc1ccc(Cl)cc1N1CCN(C(=O)CCS(=O)(=O)c2ccc3c(c2)NC(=O)CO3)CC1 | active: 16.4 µM | 
Cc1cc(C(=O)Nc2c(C)cccc2C)n(-c2ccccc2)n1 |  | inactive: 20.7%
